Among all 310,000 compounds or so, about 14,000 (4.5%) showed an effect of 50% or more. The effect is printed as a negative number. Some of the results follow.
Target: human ether-à-go-go-related gene (hERG) potassium channel (human, UniProt Q12809)
Assay: primary screen, population patch clamp on CHO cells stably expressing hERG
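Further: peak tail current of the secondary pulse compared with the same well before compound.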

Chain of human ether-à-go-go-related gene (hERG) potassium channel (Q12809 whole entry, looked up): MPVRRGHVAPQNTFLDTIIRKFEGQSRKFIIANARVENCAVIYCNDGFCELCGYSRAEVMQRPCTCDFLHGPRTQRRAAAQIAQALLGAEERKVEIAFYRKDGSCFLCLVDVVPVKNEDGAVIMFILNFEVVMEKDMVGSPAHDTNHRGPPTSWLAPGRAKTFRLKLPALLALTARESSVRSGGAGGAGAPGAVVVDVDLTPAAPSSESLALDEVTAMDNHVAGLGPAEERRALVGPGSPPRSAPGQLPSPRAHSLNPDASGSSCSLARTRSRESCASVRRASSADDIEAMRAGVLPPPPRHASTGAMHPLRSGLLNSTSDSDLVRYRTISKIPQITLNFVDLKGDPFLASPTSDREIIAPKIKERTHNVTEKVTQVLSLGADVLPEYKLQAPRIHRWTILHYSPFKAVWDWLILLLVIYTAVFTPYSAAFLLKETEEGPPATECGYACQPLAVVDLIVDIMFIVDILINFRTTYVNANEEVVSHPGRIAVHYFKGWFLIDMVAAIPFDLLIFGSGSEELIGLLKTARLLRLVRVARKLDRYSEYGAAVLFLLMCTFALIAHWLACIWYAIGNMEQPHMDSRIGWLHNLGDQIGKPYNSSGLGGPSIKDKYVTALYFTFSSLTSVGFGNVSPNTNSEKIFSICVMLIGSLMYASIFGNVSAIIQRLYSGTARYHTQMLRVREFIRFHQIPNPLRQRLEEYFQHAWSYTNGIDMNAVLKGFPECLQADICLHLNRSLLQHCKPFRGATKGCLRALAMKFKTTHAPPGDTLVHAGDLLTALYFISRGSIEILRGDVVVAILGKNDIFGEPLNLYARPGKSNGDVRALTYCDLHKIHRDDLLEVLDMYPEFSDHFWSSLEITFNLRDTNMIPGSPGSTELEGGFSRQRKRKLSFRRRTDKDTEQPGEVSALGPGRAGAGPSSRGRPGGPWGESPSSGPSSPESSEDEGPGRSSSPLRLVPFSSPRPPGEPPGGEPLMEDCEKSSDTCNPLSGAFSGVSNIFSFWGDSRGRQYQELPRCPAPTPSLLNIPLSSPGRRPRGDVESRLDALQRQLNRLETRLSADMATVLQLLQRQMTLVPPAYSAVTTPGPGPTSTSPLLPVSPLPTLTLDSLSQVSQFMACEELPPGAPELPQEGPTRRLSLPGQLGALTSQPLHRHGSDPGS

Point of comparison: CCOc1ccc(NS(=O)(=O)c2ccc(NC(=O)c3ccccc3C(=O)O)cc2)cc1, “hERG current change (%, negative = inhibition) at 10uM” value 4.91%. Against it:
- O=c1cc(C(F)(F)F)[nH]c2ccc(C(F)(F)F)cc12 — higher, 12.5%
- COc1ccccc1CNC(=O)c1cccc(S(=O)(=O)N(C)c2ccccc2)c1 — lower, -23.5%
- CCOC(=O)C1CCCN(C(=O)c2cc(Cl)ccc2NC(=O)C2=C(C)OCCS2)C1 (centres unmarked) — higher, 12.3%
- Cc1cc(OCC(=O)Nc2cnn(CCCC(=O)O)c2)ccc1[N+](=O)[O-] — higher, 35.6%
- COc1ccc(-n2c(C)cc(/C=N/Nc3nnc(C)n3N)c2C)cc1.Cl — higher, 11.8%
- O=c1c2ccccc2nc(N2CCN(c3ccccc3)CC2)n1Cc1ccccc1 — lower, -15.4%
- Cc1ccc(OCCN2CCOCC2)cc1C — higher, 12.8%
- CCCCCCCOc1ccc(OC(=O)c2ccncc2)cc1 — higher, 14.7%
- CC(C)(C)C(CCl)C(=O)NN=C(c1ccccc1)c1ccccc1 (centres unmarked) — higher, 5.54%
- O=C(CN1CC(c2ccccc2)CC1=O)NCc1ccc(F)cc1 (centres unmarked) — lower, -3.65%
- CCC(Sc1nccn1C)C(=O)Nc1ccc(Cl)cn1 (centres unmarked) — higher, 5.78%
- COc1cc(OC)cc(C(=O)NC(C(=O)OCn2nnc3ccccc3c2=O)C(C)C)c1 (centres unmarked) — lower, -21.4%
- CN1CN=C(N[N+](=O)[O-])N(Cc2ccco2)C1 — higher, 16.3%
- O=C(Nc1cccc(Cl)c1)Nc1cccc(C(=O)O)c1 — higher, 17.7%
- COc1ccc(C(=O)C2CCCN(Cc3ccc(C)s3)C2)cc1OC (centres unmarked) — lower, -71.6%
- CCOC(=O)c1sc(NNC(=O)c2ccc(C)cc2)nc1C — lower, -18.5%
- CC1CCCCN1S(=O)(=O)c1ccc2c(c1)C(C)(C)C(=O)N2C (centres unmarked) — lower, 1.72%
- CC(=O)Nc1nc(SCC(=O)NCC2CCCO2)[nH]c(=O)c1NC(=O)c1cccs1 (centres unmarked) — higher, 16.3%
- COc1ccc2c(c1)CCc1cn3nc(C)cc3nc1-2 — higher, 13.1%
- C[C@H](NC(=O)Cn1cncn1)c1ccccc1 — higher, 20.4%
- C=CCn1c(-c2ccc(OC)cc2)nc2ccccc21 — lower, -17.1%
- Fc1ccc2nc(Nc3ccccc3)sc2c1 — higher, 11%
- COc1ccc(C(CNC(=O)CCNC(=O)c2ccccc2OC)N2CCCC2)cc1 (centres unmarked) — lower, -14.1%
- COC(=O)N/N=C/c1c[n+]([O-])c2ccccc2[n+]1[O-] — higher, 18.9%
- O=C(Nc1ccccc1)Nc1cccc(-c2cn3cccnc3n2)c1 — higher, 36%
- CCOc1ccc(-c2nc(=S)[nH][nH]2)cc1 — higher, 17.5%
- Cc1ccc(Nc2cc(-n3nc(C)cc3C)ncn2)cc1 — higher, 12.9%
- OCCNC(=S)Nc1ccc2nsnc2c1 — higher, 42.4%
- COc1ccccc1N1CCN(C(=O)CCC(=O)Nc2nnc(C(C)C)s2)CC1 — lower, -10.1%
- COC(=O)c1cn(C(=O)c2ccccc2)c2ccccc12 — lower, -7.75%
- COc1ccc(OC)c(S(=O)(=O)NCc2ccc(N3CCN(C)CC3)cc2)c1 — lower, 0.373%
- Cc1cccc(Nc2nc(N)c([N+](=O)[O-])c(N3CCN(C)CC3)n2)c1 — lower, -48%
- Cc1cc(C)n(Cc2ccc(C(=O)Nc3ccc(Br)cc3C)o2)n1 — lower, -19.4%
- COc1ccc(-c2[nH]ncc2CN(C)Cc2cccnc2)c(F)c1 — lower, -1.66%
- CCOC(=O)c1c(-c2ncc(C(F)(F)F)cc2Cl)noc1C — lower, 0.575%
- Cc1nnc(NC(=O)CSc2nnc(Cc3ccccc3)n2-c2ccccc2)s1 — higher, 6.1%
- COc1ccc(-c2cc(-c3ccc(OC)cc3)c(C#N)c(SC)n2)cc1 — higher, 5.38%
- COc1ccc(/C=C/C(=O)Nc2c(C)nn(C)c2C)cc1COc1ccc(Cl)cc1Br — higher, 10.5%
- CC(=O)Nc1ccc(-c2nnn(CC(=O)c3ccccc3)n2)cc1Cl — higher, 6.77%
- N/C(CCS(=O)(=O)c1ccc(Cl)cc1)=N\OC(=O)c1ccccc1Cl — lower, -29.2%
- COc1ccc(CN2[C@@H](CC(=O)O)c3ccc(C(F)(F)F)cc3S2(=O)=O)cc1 — lower, -14%
- COc1ccccc1NC(=O)Oc1ccc(NC(=O)c2ccco2)cc1 — lower, 0.869%
- O=C(Nc1ccccc1C(=O)N1CCCCC1)C1CCCCC1 — higher, 5.76%
- O=C(C1=CC=CN2CCS(=O)(=O)N=C12)N1CCN(c2cccc(Cl)c2)CC1 — higher, 25.5%
- CCSc1nnc(NC(=O)C(C)C)s1 — lower, -4.84%
- C=C1CCC[C@]2(C)C[C@H]3OC(=O)C(CN4CCCCC4CO)[C@H]3CC12 (some centres unmarked) — higher, 11.7%
- O=C(O)CC12CC3CC(C1)CC(n1ncc(NCc4ccc(F)cc4Cl)c(Cl)c1=O)(C3)C2 — higher, 18.3%
- CCC(CC)CN1C(N(C)C)=NC[C@@H]1CC(C)C — lower, -4.65%
- O=[N+]([O-])c1ccc(N2CCCCC2)cn1 — higher, 8.92%
- COc1ccc(C(c2sc3nc(C)nn3c2O)N2CCC(O)CC2)cc1OC (centres unmarked) — lower, 1.72%
- Cc1ccc(CC(=O)CCc2ccccc2)cc1 — higher, 14.4%
- O=C(Cc1ccc(Cl)cc1)NC(=S)Nc1ccccc1O — higher, 16.8%
- CCC(C(=O)N1CCc2ccccc2C1)n1nc(C)n2c(cc3occc32)c1=O (centres unmarked) — lower, -18.9%
- COc1cc(OC)cc(-c2c(-c3cccs3)c3cc(-c4ccc(OC)c(OC)c4)ccc3n2C)c1 — higher, 14.6%
- CC(=O)N1CCN(c2ccccc2NC(=O)c2cccc3c(Cl)cccc23)CC1 — lower, -19.2%
- Cc1nonc1OCCn1nnnc1N — higher, 21.7%
- O=C(NCC(c1ccco1)N1CCN(c2ccc(F)cc2)CC1)OCc1ccccc1 (centres unmarked) — lower, -23.4%
- CSCc1ccc(C(=O)N2CCC(N3CCC(C(=O)NC(C)C)CC3)CC2)o1 — higher, 5.19%
- C=CCSc1nnc(NC(=O)C2CSC3(C)CCC(=O)N23)s1 (centres unmarked) — lower, -6.07%
- CCOC(=O)N1CCN(C(=O)COc2ccc(S(=O)(=O)NC(C)C)cc2)CC1 — higher, 5.43%
- CC(C)Nc1nc(NC(C)C)nc(N(C)C(N)=O)n1 — lower, -12.1%
- CC1=NNC(=O)C1CC(=O)N/N=C/C=C/c1ccccc1 (centres unmarked) — higher, 31.1%
- Cc1ccccc1C1C(C#N)=C2N=C(N)c3c(sc4c3CCCCC4)N2C2=C1C(=O)CC(C)(C)C2 (centres unmarked) — higher, 15.4%
- Cc1cc(C)nc(-n2ncc3c2CC(c2ccc(F)cc2)CC3=O)n1 (centres unmarked) — lower, 1.62%
- Cc1ccc(C)n1NC(=O)c1ccccc1[N+](=O)[O-] — higher, 11.9%
- CCOC(=O)c1ccc(NC(=O)CCSCCc2ccccn2)cc1 — lower, 0.702%
- COc1ccc(C(=O)NC2CCN(C(=S)Nc3ccc(C)cc3)CC2)cc1 — lower, -1.18%
- CCc1ccc(N(CC)C(=O)c2cn(C)c(=O)c3ccccc23)cc1 — lower, -5.57%
- CC(C)OC(=O)C1C2C=CC3(CN(C(C)c4ccc(Br)cc4)C(=O)C13)O2 (centres unmarked) — lower, -7.04%
- Cl.O=C(NCCN1CCCC1)C1COc2ccccc2O1 (centres unmarked) — higher, 19.4%
- O=C(c1cccc(-c2nnc(-c3ccccc3)o2)c1)N1CCCCCC1 — lower, -24.9%
- Cc1cccc(N2CCN(S(=O)(=O)c3c(C)[nH]c(C)c3C(=O)N3CCCC3)CC2C)c1 (centres unmarked) — lower, -19.2%
- COc1cccc(C(=O)Nc2ccc3nc(N4CCN(c5ncccn5)CC4)cc(C)c3c2)c1OC — lower, -11.8%
- O=C(NNC(=O)c1ccc(Br)s1)c1cccc(S(=O)(=O)N2CCCC2)c1 — lower, -18.7%
- N#C/C(=C\c1cccc(Oc2ccccc2)c1)C(=O)N1CCOCC1 — lower, 4.68%
- COC(=O)C1=CN(CC2CCCO2)C=C(C(=O)OC)C1c1cc(OC)c(OC)c(OC)c1 (centres unmarked) — lower, -11.8%
- NC(=O)c1ncc(C(F)(F)F)cc1Cl — higher, 31.8%
- O=C(Nc1ccc(CN2CCOCC2)cc1)c1ccc(-c2ccc(Cl)cc2Cl)o1 — lower, -7.54%
- Cc1cc(NC(=O)CSC2=NS(=O)(=O)c3cc(F)ccc3N2)no1 — lower, -2.34%
- O=C(O)/C=C/C(=O)Nc1ccccc1-c1ccccc1 — lower, 3.01%
- CCOC(=O)Cn1nc(C)c(NC(=O)CCc2ccccc2)c1C — higher, 9.5%
- c1ccc(-n2cc(CN3CCC(N4CCOCC4)CC3)c(-c3ccc4c(c3)OCO4)n2)cc1 — lower, -50.8%
- COc1ccccc1N1CCN(C(=O)c2ccc3c(c2)NC(=O)C(CSCc2ccccc2C)N3)CC1 (centres unmarked) — higher, 20.2%
- COc1ccccc1NC(=O)CN1CCN(Cc2ccccc2)CC1 — lower, -67.6%
- COc1ccc(OC)c(NC(=O)CCNS(=O)(=O)c2ccc3c(c2)oc(=O)n3C)c1 — lower, -9.09%
- COc1ccc(-n2nc(C(=O)NCC(=O)N3CCC(C)CC3)c3ccccc3c2=O)cc1Cl — higher, 9.08%
- Cn1c(SCC(=O)Nc2ccccc2)nnc1-c1ccc(NC(=O)CCc2ccccc2)cc1 — lower, 4.53%
- O=C(CN1C(=O)C2C3C=CC(C4CC34)C2C1=O)Nc1cccc2ncccc12 (centres unmarked) — lower, 0.881%
